This data set deals with ATP. As to the kind of experiment: switch fluorescence ratio, 500 uM ATP over buffer (Cy3 cluster intensity, sum of 5 cycles each) (fold (ratio)); higher = stronger signal-on switching upon ATP binding; sequences stand for … in TCGTCGGCAGCGTCAGATGTGTATAAGAGACAGTTTTTTTTTTTTTTTTTTTTTTTTT…TC. As to conditions: aptamer strand: ATP DNA aptamer (quencher-CACCTGGGGGAGTATTGCGGAGGAAGG + anchor), 100 nM annealed; ATP concentration: 500 uM; one replicate. The method, boiled down:
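The quencher-labelled ATP aptamer, at 100 nM, was annealed to Cy3-labelled switching-strand clusters on a modified Illumina MiSeq flow-cell. The clusters were imaged in selection buffer, then after 15 min with 500 uM ATP at 22 °C, and this buffer/ATP cycle ran five times with NaOH stripping and re-annealing between runs. Per-cluster fluorescence ratios, summed target-cycle over summed buffer-cycle Cy3 intensity, were averaged per switch-domain sequence. Clusters outside 100-1000 RFU were excluded.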

Sequences with one replicate were seen in a single cluster, so their values are uncertain.
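Further: ATP exposure 15 min at 22 °C before imaging.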

As for CAAGGAATAG, the switch fluorescence ratio stood at 1.19.

On to TATACGCAAA, for which the switch fluorescence ratio stood at 2.73.

For the sequence AAATGTACGC, the switch fluorescence ratio stood at 1.11.

Take TTCGGAAAGC: the switch fluorescence ratio stood at 1.09.

With TAAGGGAGGA, the switch fluorescence ratio came to 0.98.

With TAATAGTA, the switch fluorescence ratio came out at 1.

For the sequence CAGTGATGTC, the switch fluorescence ratio was found to be 0.978.

Consider TTCGAAAGGA, for which the switch fluorescence ratio was determined as 0.98.

Take ACAAACCCC: the switch fluorescence ratio worked out at 1.24.

As for GCCTGCCCCA, the switch fluorescence ratio came to 1.12.

For the sequence GCTGGCAAAG, the switch fluorescence ratio stood at 1.

With ACGATGGGTT, the switch fluorescence ratio is 0.967.

In the case of TGTTACATAC, the switch fluorescence ratio is 1.49.

As for AGTTGACGCA, the switch fluorescence ratio turned out to be 1.03.

Turning to CAGCCCTGGT, the switch fluorescence ratio came to 1.08.

On to GAAGAAGCGG, for which the switch fluorescence ratio was found to be 0.999.

ATGAAACGC: the switch fluorescence ratio was 1.

Turning to GTGAGGAAGG, the switch fluorescence ratio is 0.972.

On to ACATCAATGA, for which the switch fluorescence ratio stood at 1.02.

GTGCATGCGC: the switch fluorescence ratio was 1.

Regarding CGGGGACGT, the switch fluorescence ratio worked out at 0.986.

For the sequence GACTGCCGAC, the switch fluorescence ratio was found to be 1.12.

For the sequence GCTGAATATT, the switch fluorescence ratio was 0.966.

As to GGTGTTCAAC, the switch fluorescence ratio worked out at 0.975.

On to TGTTCGAACG, for which the switch fluorescence ratio came to 1.07.

As to AAGGTCGGGG, the switch fluorescence ratio turned out to be 1.07.

Take ATACTGGCCG: the switch fluorescence ratio worked out at 1.09.

On to CGTAATTAT, for which the switch fluorescence ratio is 1.03.

Turning to TCGGATCGGT, the switch fluorescence ratio worked out at 0.959.

For the sequence CTGAGTAGAT, the switch fluorescence ratio is 1.06.

Turning to GAAGTCTCAT, the switch fluorescence ratio turned out to be 0.978.

Regarding TCCCTGCCCC, the switch fluorescence ratio is 1.15.

For the sequence CGAGGCACGG, the switch fluorescence ratio turned out to be 1.14.

As to TACTAACCTG, the switch fluorescence ratio amounted to 1.03.

As to AAGGGTGAAC, the switch fluorescence ratio worked out at 1.05.

GCGGAAAGTT: the switch fluorescence ratio turned out to be 0.999.

With GTTCGGACTT, the switch fluorescence ratio was 1.03.

Regarding TTGCGTTTTC, the switch fluorescence ratio was 1.06.

Turning to GGATGTATAT, the switch fluorescence ratio amounted to 0.993.

With TAGTAACTGG, the switch fluorescence ratio was determined as 1.01.

Take TAAGGAAACC: the switch fluorescence ratio was found to be 1.02.

For the sequence ATAGATATAA, the switch fluorescence ratio came out at 1.01.

With AGGTGACTAA, the switch fluorescence ratio amounted to 1.03.

As for TAAGCTGATG, the switch fluorescence ratio amounted to 1.15.

TATATCGGTT: the switch fluorescence ratio is 0.969.

Turning to TTGGCGGCGC, the switch fluorescence ratio turned out to be 1.03.

On to GATATTGTCT, for which the switch fluorescence ratio was 0.959.

As to ATAGCGTGCA, the switch fluorescence ratio came to 1.02.

On to TGGTGGATCC, for which the switch fluorescence ratio turned out to be 0.999.

On to TAGAGTTGAA, for which the switch fluorescence ratio is 0.973.

ATAAGCTGCC: the switch fluorescence ratio amounted to 1.54.

In the case of CCCTGGTAGT, the switch fluorescence ratio was determined as 1.14.

Regarding CGGAACAGAT, the switch fluorescence ratio came out at 1.01.

As for ACTGTGCCAT, the switch fluorescence ratio came out at 1.03.

Consider CGAGTAGGCT, for which the switch fluorescence ratio came to 0.981.

In the case of CCTTATGTTG, the switch fluorescence ratio was 0.993.

On to CGCATCATTC, for which the switch fluorescence ratio is 1.89.

For AAGCTTAGTG, the switch fluorescence ratio was determined as 0.987.

For the sequence CAATCGAGTC, the switch fluorescence ratio is 1.01.

For GGACCTTAAT, the switch fluorescence ratio was determined as 1.03.

Regarding CCTGCAGCTG, the switch fluorescence ratio amounted to 1.11.

As to TTTCCTGCTT, the switch fluorescence ratio was 0.931.

With GAGGTATTTC, the switch fluorescence ratio turned out to be 0.966.

Consider TTAACGGAAA, for which the switch fluorescence ratio worked out at 1.08.

In the case of GAATACAAAG, the switch fluorescence ratio was 1.03.

For the sequence TCGGGATCA, the switch fluorescence ratio was determined as 0.983.

CTTATAATCT: the switch fluorescence ratio amounted to 0.983.

With ATACTATATA, the switch fluorescence ratio worked out at 1.11.

Take GCTATTTTAA: the switch fluorescence ratio was 0.972.

As to CGTCGTAACG, the switch fluorescence ratio worked out at 0.989.

For the sequence AGTTAACACC, the switch fluorescence ratio amounted to 1.01.

Regarding GGATTGTACT, the switch fluorescence ratio came to 0.993.

As for TCTATATAAT, the switch fluorescence ratio was 1.01.

For CCCTTCAGGA, the switch fluorescence ratio is 1.02.

As for CCGCCTGGTC, the switch fluorescence ratio worked out at 2.09.

As for TAAGAACAG, the switch fluorescence ratio came to 0.993.

TAACGTGCCA: the switch fluorescence ratio was 1.01.

Turning to ATCTGGGCCA, the switch fluorescence ratio stood at 0.995.

Regarding CATTCTCGCT, the switch fluorescence ratio was 1.05.

GTTTGAACTT: the switch fluorescence ratio was determined as 1.04.

With ATATAAGAAC, the switch fluorescence ratio was 1.27.

As to TTATCAGCCT, the switch fluorescence ratio came out at 1.08.

Consider AGATGATGCT, for which the switch fluorescence ratio worked out at 1.

Take GATAGTTAAC: the switch fluorescence ratio worked out at 0.992.

With AAAATGTTCG, the switch fluorescence ratio was determined as 1.07.

Turning to ACCTTCTGAC, the switch fluorescence ratio turned out to be 1.14.

Turning to TTATGACCAT, the switch fluorescence ratio was 1.01.

Consider CACATGATTT, for which the switch fluorescence ratio is 1.01.

As for CTTCTTTAGT, the switch fluorescence ratio came out at 1.02.

Turning to CATGGTGCCG, the switch fluorescence ratio is 1.04.

In the case of TTATCAAGAT, the switch fluorescence ratio stood at 1.05.

In the case of TGCAAGGGTA, the switch fluorescence ratio worked out at 1.01.

As to TACCTTTCCG, the switch fluorescence ratio came to 1.07.

For CCCATAGTAA, the switch fluorescence ratio came out at 1.27.

Turning to GTTCCCGTTC, the switch fluorescence ratio is 1.05.

On to ACCTTATTCT, for which the switch fluorescence ratio is 1.05.

GTTAGTATGT: the switch fluorescence ratio was found to be 1.01.

As for TGAAGGTATG, the switch fluorescence ratio came to 0.986.

TGTGGTGAGC: the switch fluorescence ratio came out at 0.977.

For the sequence CGCTCCGAAG, the switch fluorescence ratio is 1.27.

Take TCGGACCTTG: the switch fluorescence ratio was found to be 0.979.

For GGTTTGCTAA, the switch fluorescence ratio stood at 0.982.

In the case of AAACTATATG, the switch fluorescence ratio is 1.03.

GAAGGACCGT: the switch fluorescence ratio was 1.03.

Consider CAGCCAGGCT, for which the switch fluorescence ratio worked out at 1.05.

Regarding GCCTGATTGG, the switch fluorescence ratio is 0.978.

GAGCTGGCCA: the switch fluorescence ratio amounted to 1.09.

For CGCACAAATC, the switch fluorescence ratio was determined as 1.44.

For the sequence GTCGGAAAAC, the switch fluorescence ratio worked out at 1.16.

For the sequence TGGGGCAACC, the switch fluorescence ratio stood at 1.04.

Turning to TACCCGGACT, the switch fluorescence ratio worked out at 1.03.

In the case of GATATGAGGC, the switch fluorescence ratio worked out at 1.02.

For ATGTAAAGGC, the switch fluorescence ratio stood at 0.995.

GTTGTCCTGC: the switch fluorescence ratio stood at 0.952.

In the case of CATCACAGTG, the switch fluorescence ratio is 1.09.

On to TAGGGGCGCT, for which the switch fluorescence ratio worked out at 1.01.

Consider GCCTCGAATT, for which the switch fluorescence ratio was found to be 0.98.

With AGTTGGTGTC, the switch fluorescence ratio was found to be 0.921.

In the case of CCATCATTTG, the switch fluorescence ratio came out at 1.03.

Regarding AGATTCTAGC, the switch fluorescence ratio is 1.

These data come from the supplement of paper PMC10126150.
